Assays:
His-EK-ratGal3 = biological target: T1, His-EK-ratGal3 (Rattus norvegicus, UniProt P08699); assay: Affinity kinetics to rat Gal3 (Biacore T200); type: binding
T1 sequence (P08699 1-262): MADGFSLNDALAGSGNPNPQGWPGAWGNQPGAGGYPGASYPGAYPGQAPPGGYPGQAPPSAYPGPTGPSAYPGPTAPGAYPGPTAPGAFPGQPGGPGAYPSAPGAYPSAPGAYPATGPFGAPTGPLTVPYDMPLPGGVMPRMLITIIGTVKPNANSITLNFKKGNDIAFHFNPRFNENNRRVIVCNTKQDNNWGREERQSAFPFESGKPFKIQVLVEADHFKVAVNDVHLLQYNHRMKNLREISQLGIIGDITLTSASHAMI
Procedure: In each sample cycle, duplicates of the same antibody in HBS-EP+ with 0.5 mg/mL BSA at 10 μg/mL were captured to FC2 and FC4 by flowing at 10.0 μL/min for 120 seconds, and then diluted His-EK-ratGal3 in HBS-EP+ with 0.5 mg/mL BSA was injected to all 4 flow cells at 30.0 μL/min for 180 seconds, followed by dissociation for 240 seconds. A dilution series of His-EK-ratGal3 started from 300 nM, and was 1:3 diluted for 6 points. FC1 and FC3 were used as reference flow cells, and their sensograms were subtracted from FC2 and FC4 respectively to reduce non-specific binding background. Also, an additional sample cycle at 0 nM analyte was run, and its sensogram was subtracted from those of non-zero nM cycles to address machine drifts and bulk shifts. The data were analyzed by Biacore Evaluation software version 2.0. The binding affinities were characterized by fitting the kinetic sensograms to a monovalent binding model (1:1 binding).
The affinity of Gal3 binding to antibody was determined by acquiring real time Ligand:Analyte binding kinetics data and fitting the data with a 1:1 monovalent binding model. The kinetic evaluation procedure determines association and dissociation constants by fitting the experimental data to a 1:1 interaction model between analyte A and ligand B:
The affinity KD is the result of Kd divided by Ka.
The protocol disclosed in Example 9 was generally followed.

Human Gal3 peptides = biological target: T2, Human Gal3 peptides (Homo sapiens, UniProt P17931); assay: Gal3 peptide binding ELISA (Example 8); details: antibody 5 μg/mL
T2 construct: purchased LifeTein custom order
T2 sequence (P17931 52-71): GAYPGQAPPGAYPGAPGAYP
In short: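 Plates coated overnight at 4 °C with human Gal3 peptides (at least 100 μg/mL) or Gal3 protein (1 μg/mL) in PBS, then blocked with 2% BSA/PBST. Antibodies as hIgG4 (S228P) at 5 μg/mL, 1 h at room temperature. Detection by HRP anti-human IgG F(ab′)2 and TMB, absorbance at 450 nm.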

[1] = biological target: interaction between Gal3 and GLUT1 (Homo sapiens, UniProt P17931); assay: Gal3-GLUT1 blocking ELISA; type: binding; details: antibody 3-fold dilutions
interaction between Gal3 and GLUT1, sequence (P17931 whole entry): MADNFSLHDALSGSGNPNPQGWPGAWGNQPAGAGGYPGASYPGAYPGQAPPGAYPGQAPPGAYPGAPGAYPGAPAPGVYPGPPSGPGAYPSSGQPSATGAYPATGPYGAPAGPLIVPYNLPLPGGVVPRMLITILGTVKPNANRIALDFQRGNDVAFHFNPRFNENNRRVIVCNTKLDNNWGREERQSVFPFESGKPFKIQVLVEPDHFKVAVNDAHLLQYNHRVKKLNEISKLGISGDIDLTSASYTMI
Procedure: Human Gal3 protein was diluted in PBS to a concentration of 2 μg/mL and used to coat a 96-well ELISA plate with 40 μL per well. After incubating the plate at 4° C. overnight, the plate was washed three times with 300 μL PBST. A blocking step was performed with 150 μL of 2% BSA in PBST per well and incubated for an hour at RT with gentle rocking. The existing blocking solution was then discarded form the plate. […] 30 μL of 3 μg/mL of FLAG-tagged GLUT1 or GLUT4 protein diluted in 2% BSA in PBST was then added to the appropriate wells containing antibody or control solution. The plate was incubated for an hour at RT with gentle rocking and then washed three times with 300 μL PBST. Afterwards, HRP-tagged anti-FLAG antibody was diluted to 1:4000 in 2% BSA in PBST, and 25 μL was added to all of the wells. The plate was incubated for an hour at RT with gentle rocking, and then washed with 300 μL PBST three times. To develop the plate, 50 μL of ABTS substrate was added to each well and incubated until a sufficiently high signal was achieved. The plate was read with a plate reader at an absorbance of 405 nm. Data was graphed using GraphPad Prism 8.0 software and IC50 values were generated using manufacturer instructions.

B1: TB006: humanized anti-Gal3 antibody derived from mouse mAb, hIgG4 backbone (antibody)
heavy: QVQLVQSGAEVKKPGASVKVSCKASGYSFTNYYMHWVRQAPGQRLEWMGWIYPGSGNTNYNEKFQGRVTITADTSASTAYMELSSLRSEDTAVYYCSTAPGGFDVWGQGTTVTVSSASTKGPSVFPLAPCSRSTSESTAALGCLVKDYFPEPVTVSWNSGALTSGVHTFPAVLQSSGLYSLSSVVTVPSSSLGTKTYTCNVDHKPSNTKVDKRV[in this place human IgG4 Fc with S228P (EU numbers)]
light: DIVMTQTPLSLSVTPGQPASISCKSSKSLLHSDGITYLYWYLQKPGQSPQLLIYRMSNLASGVPDRFSGSGSGTDFTLKISRVEAEDVGVYYCAQMLEFPLTFGQGTKLEIKRTVAAPSVFIFPPSDEQLKSGTASVVCLLNNFYPREAKVQWKVDNALQSGNSQESVTEQDSKDSTYSLSSTLTLSKADYEKHKVYACEVTHQGLSSPVTKSFNRGEC
modifications: TB006 heavy chain peptide sequence; TB006 light chain peptide sequence
notes: humanized anti-Gal3 antibody derived from mouse mAb, hIgG4 backbone
- affinity (KD) for rat Gal3 (His-EK-ratGal3; Example 9): undetected
- average affinity to His-EK-ratGal3 (His-EK-ratGal3; Example 14): did not bind
- binding to Gal3 peptide 6 (SEQ ID NO: 8) (Human Gal3 peptides): bound
- inhibition of GLUT1 binding to Gal3 [1]: concentration-dependent ability
